# Whole data set: some 33,000 sequences, median “E-score (-0.5 to 0.5)” near -0.016, cut for the highest 2% near 0.31. The list shows a part of the results.
# Biological target: Cst6 (UniProt P40535)
# Assay: PBM E-score (8-mer binding enrichment) (E-score (-0.5 to 0.5)); higher = stronger / more preferred TF binding; most listed sequences are background and not binding sites
# Details: protein concentration: 200 nM; construct: GST-DNA-binding domain
# Summary of the method: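 Using PURExpress in vitro transcription/translation, GST-tagged yeast transcription factors were made in full-length or DNA-binding-domain form. These were applied at about 100-200 nM to double-stranded universal all-10-mer Agilent arrays, and bound protein was detected with fluorescent anti-GST. Scans were normalised with masliner before the Universal PBM Analysis Suite assigned E-scores to ungapped eight-base words pooled with their reverse complements.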
row,Sequence,PBM E-score
1,TAAGTTCA,0.0249
2,CTAGCAGC,-0.143
3,ATGTTACA,0.123
4,CCAGATTA,0.0663
5,ACTAGTTC,0.0244
6,ACCCCTTG,-0.33
7,ATATACAG,0.133
8,AAAAGTAC,0.129
9,GGTTAGTA,0.0636
10,ACGGGCGG,-0.236
11,TCAGCAAA,0.197
12,ATTTCCTA,0.11
13,AAGTTTCT,0.205
14,ATCCGTCA,0.253
15,TCGACTCA,0.00059
16,CAAGCCGG,-0.0131
17,ACGCCTAT,-0.07
18,AAGCTTTC,0.0818
19,CGCGACCG,0.0126
20,GAGAGCGC,-0.065
21,GAGAGCCC,-0.336
22,ACAGTCTG,-0.239
23,GAGCCAGA,-0.0426
24,TCGCCCGA,-0.262
25,CGGATAGC,-0.022

row,Sequence,PBM E-score
1,CCGTCAAA,0.0647
2,GATTTGAA,0.104
3,TACTCAGA,0.137
4,ATTAGAGC,0.163
5,ACATCGAT,0.132
6,ACTAAGGA,-0.207
7,CTGACTGC,-0.12
8,GTGGAGGA,-0.0297
9,GACACGCC,0.0155
10,AGCTGGTA,-0.242
11,CTCAGTCA,0.1
12,GGAAATTA,0.25
13,GTACCTCA,-0.0484
14,CTAGGCAC,-0.0993
15,AAAGGAAG,-0.126
16,GCCTGATA,-0.0644
17,CTCGCGAA,-0.12
18,ACATACCG,-0.0815
19,AGCATCAT,0.251
20,TACGATAA,0.203
21,CAAATTTC,-0.0576
22,AACTCGCT,-0.112
23,AGCTCGCA,-0.057
24,GACCACTC,-0.168
25,CTCTTAGA,-0.0632

row,Sequence,PBM E-score
1,TCGTCACA,0.368
2,AGAAAAAC,0.00206
3,CCGGTCCC,-0.36
4,ATTACGAG,0.235
5,AATTAGCC,0.0058
6,AGATTATG,0.068
7,AGCGTGGG,-0.292
8,ACATCATA,0.443
9,CCATCCCC,-0.15
10,CACATGCG,0.106
11,CGGGATCC,-0.104
12,CCGTGAAA,0.1
13,CTTTACTA,0.159
14,AACTTGCA,0.0569
15,GCCCCTGA,-0.249
16,ACGGTTTG,-0.0412
17,GTGAGCCA,0.0286
18,ATAAATAA,0.335
19,CAATGGAA,0.0744
20,CCTCTTCA,-0.139
21,ATAAGTAA,0.164
22,AATCACCA,0.169
23,ACAGGCCC,-0.333
24,AACTAAAT,0.00726
25,CCACTTTC,0.0466

row,Sequence,PBM E-score
1,TCGGCCAA,-0.0317
2,CGAATGGC,-0.0119
3,CAGGGACG,-0.0973
4,CAGCCCAA,-0.0169
5,GGCCACGA,-0.116
6,CCCACTGC,-0.177
7,TAGCTCCA,-0.0325
8,CGAACCGA,0.122
9,AGTGGCGG,-0.0712
10,TCGTGCCA,-0.0834
11,GTAACGAC,0.0256
12,TACCAAAA,0.059
13,CATTCTTC,0.0436
14,CACTAGCA,-0.149
15,AGATACGA,0.116
16,ATGGGCTG,-0.207
17,ATTACTTA,0.237
18,CTTATTTC,0.266
19,CGTTACCA,0.168
20,CCGTACCA,0.00128
21,AACCCGCG,0.053
22,CGGTGACA,0.266
23,AACATGTG,0.22
24,CATAGCAC,0.138
25,CCCCGACG,-0.241

row,Sequence,PBM E-score
1,CTAAACAG,0.0727
2,CTAGACGC,-0.132
3,CTAAAGAG,-0.0139
4,AAAAGTGC,0.0658
5,GAATCATA,0.151
6,CATCACTA,0.353
7,GTCATAAC,0.29
8,CCACCGGG,-0.295
9,CATTTAAA,0.279
10,CCGGTTTA,-0.0985
11,AGGCCAGA,-0.185
12,CACTACGA,0.129
13,GAAGCTGA,0.0703
14,GGATTAGA,-0.142
15,AGATAACG,0.203
16,GATTTACA,0.191
17,AGTTTTTG,0.147
18,GCACCGAC,0.00751
19,CACTGTAC,-0.267
20,CATAATGC,0.0974
21,ACGTTGCT,0.0989
22,GGCAGGAC,-0.324
23,GCCTCCCA,-0.211
24,GAACGACA,0.0632
25,GAAATGCA,-0.0223

row,Sequence,PBM E-score
1,GCGCTGCC,-0.144
2,CAATCGAG,-0.191
3,ACCATGTC,0.145
4,CGGTTTTA,-0.063
5,CATTCCCC,-0.155
6,GCGTGACA,0.255
7,CTGCTATA,0.0154
8,CCTAAGCA,-0.0807
9,GGAAGTAA,-0.0428
10,CGCTGGAA,-0.0873
11,GGTAATTA,0.215
12,GACATGAC,0.275
13,CCGAATTC,0.0525
14,AAGCTCTA,-0.157
15,ATCACGGG,0.112
16,CGACGGCA,-0.00873
17,ATAGATAC,0.137
18,GTACACGA,0.192
19,CCGTATGA,0.226
20,TTACTGAA,0.128
21,AGCAGTCC,-0.35
22,CGCGCTGA,-0.0301
23,GACATTCA,0.0891
24,CTAAGACA,0.0903
25,GACAAATC,0.0252

row,Sequence,PBM E-score
1,GAAAAAAA,0.258
2,CCGGTTTC,-0.131
3,AGGCCCTG,-0.25
4,TCTGCTCA,-0.0542
5,CAAAAGGG,-0.0943
6,GAAAAGAC,0.222
7,CGCCTTAC,0.163
8,AGTAGTAC,0.101
9,CAATAAGC,-0.0306
10,ATATGAGC,-0.0814
11,GGCATACC,-0.21
12,AAGGTTAT,-0.0505
13,AACCGAGT,-0.219
14,CAAAGCTG,-0.06
15,CCTGCGTA,0.0652
16,AACTGTTA,0.144
17,GGCAAAGA,0.0808
18,ACACGTCG,-0.0793
19,GAGTGGCC,-0.161
20,AATGGTTC,0.0881
21,AGTGCGTG,-0.00229
22,GACCGAAC,-0.0143
23,ATGAGACA,0.00932
24,GCATCGCC,-0.101
25,ATGACTTC,0.218

row,Sequence,PBM E-score
1,CGCAAGCC,-0.0358
2,ACTTTCCT,-0.00458
3,GACGGCAA,0.18
4,GTGACTTA,0.206
5,ACGCCTGA,0.142
6,CATTTGGC,0.0498
7,AAGGTAAG,0.0212
8,TATGCGCA,-0.0237
9,GGCAGGGA,-0.142
10,ACGCGACC,-0.0529
11,CAATCGCG,-0.0451
12,CGTCGAGC,-0.104
13,TAACCCAA,0.174
14,TCATGGCA,0.0614
15,CCCAATTC,0.178
16,AGTAAGGA,-0.0515
17,GTAAAGAA,0.214
18,CGAATGAC,0.348
19,CGTAGCTC,0.156
20,AAGAAGGC,-0.0423
21,CATTTAAG,0.115
22,GGGAATTA,0.11
23,GACGCCTC,0.242
24,CACTCTAA,0.00605
25,ACCGTTAC,-0.0121

row,Sequence,PBM E-score
1,GCAGTTAC,0.0988
2,CATTATAG,0.108
3,GTTACAGA,-0.0693
4,ATCTCTCG,-0.0585
5,CCCACGCC,-0.134
6,ATACGAAT,0.0442
7,TCGATTCA,0.0946
8,CCTCATCA,0.161
9,ACAGAAAA,0.229
10,AGATCATA,0.236
11,CCGCAAGA,0.0205
12,AATATAGA,0.265
13,AAACTCCT,-0.234
14,GCATAGCA,0.00461
15,AGGTGCAC,0.103
16,AAGTTTAT,0.187
17,GACCTTGC,-0.25
18,GGGGTCTA,-0.148
19,GTATCCCA,-0.23
20,CACTACTA,-0.125
21,AAAGGCAA,0.229
22,ATTCGCAA,0.0498
23,CACCCATG,0.0657
24,CACAAGGA,-0.0992
25,ACTGGGGG,-0.426

row,Sequence,PBM E-score
1,AATTGCGG,-0.0187
2,GTTCGAGA,0.0898
3,ATAAAGCC,-0.0256
4,AACTTCCT,0.0315
5,CAGTAGAA,0.0612
6,CGGGTGAC,0.279
7,GCGACGCC,0.119
8,AGAATATG,0.252
9,GCCGTCAC,0.334
10,CTATTCTA,0.0634
11,CGTTTACC,0.09
12,GATCCAAC,-0.156
13,CTGAGCAG,-0.0256
14,CTTACAAC,0.136
15,AACGCCGC,0.361
16,CCCTATAG,-0.195
17,GTAGTAAC,-0.1
18,AGGGACTA,-0.127
19,ATGGTGAC,0.267
20,CAGAACTC,-0.0115
21,AATGATGG,0.186
22,AATTCCCG,0.0254
23,CAAGAATG,0.123
24,GATAACAC,0.0167
25,AGGTATCC,-0.0124

row,Sequence,PBM E-score
1,ACATACAC,0.115
2,GCGTGCGA,-0.124
3,GGAGGAAA,-0.205
4,GTGCTGCA,-0.0597
5,CCCGGAGA,-0.0792
6,CGTGAAAA,0.0945
7,GCTGACGA,0.27
8,ATCAGGGC,-0.145
9,CTTCATCA,0.106
10,CGATAGGC,0.0216
11,GGCGACCA,-0.208
12,GGCTGTTA,0.221
13,GTAGAACA,-0.215
14,AACTAATT,0.209
15,CGTCGTTA,0.0174
16,GCTTTCTA,0.228
17,CACACAAG,0.0242
18,CGGGACAC,-0.245
19,CAATGTTA,0.0121
20,AAAACTGG,-0.0155
21,ACCTCGCC,-0.31
22,ACAGCACT,-0.0241
23,TATACATA,0.295
24,CGAAGCAC,-0.0554
25,TCAGTTAA,0.175

row,Sequence,PBM E-score
1,ACTGCATG,0.0495
2,CCATCTGA,0.0151
3,CAAGCAAA,-0.0475
4,TTCAAAAA,0.171
5,TAAGCTTA,0.185
6,CACACATC,-0.0773
7,GTCGGACA,-0.0848
8,TGGAGACA,-0.126
9,GCTTTAGA,-0.187
10,AGGATATA,0.183
11,CCAGTGTA,-0.0483
12,ACAGCATG,0.0103
13,AATAGCCT,0.0007
14,CGGTTCTC,-0.159
15,CCGCTACG,-0.125
16,GAGGCACC,-0.0901
17,ACCTGTTG,0.0132
18,CAAGGGGC,-0.101
19,AAGACGCG,-0.111
20,ACATCCGA,-0.125
21,TAATGACA,0.347
22,ACACAATG,0.183
23,CACTTATC,0.174
24,CTGGGCAA,-0.048
25,ACTGGTAG,-0.0646

row,Sequence,PBM E-score
1,CAATTTAA,0.199
2,ACGACTTC,0.146
3,GGCGTACA,-0.0885
4,ATATTCAC,0.106
5,CCACGTCC,-0.214
6,ACTTTTTC,0.0891
7,CAGCCTCA,-0.106
8,AAAATAGC,-0.144
9,AGTAACTG,0.00693
10,ACGGACAA,0.0518
11,AGCAAACT,0.0792
12,CGTGTTGC,0.00207
13,CGATCGCG,0.0609
14,GCTAGCAC,-0.116
15,TACCCATA,-0.0917
16,GGGTGTGA,-0.14
17,CCTCCGCA,-0.322
18,CATCCATA,-0.0759
19,CACAGGAA,-0.0714
20,ACAATCGG,0.0962
21,GCATTGAC,0.235
22,GGTGTTAC,-0.0874
23,AACACGAC,-0.134
24,AATCTCAA,0.0209
25,CCACCTCA,-0.114

row,Sequence,PBM E-score
1,ACTTAGCA,-0.0634
2,GAGCTTCC,-0.124
3,CACCGCAA,0.131
4,GCTCCTCC,-0.0758
5,AGACAAAA,0.0317
6,ATGCTGGA,-0.0114
7,GCACTCGC,0.0139
8,GCAGCGGA,-0.147
9,AAGTGACA,0.357
10,AAGAAGAC,0.012
11,CAGAATTC,0.0696
12,AACCCACA,0.0177
13,CCCGATCA,-0.255
14,CACAGTGG,-0.124
15,GGACCGAC,-0.125
16,AACATGGA,-0.0776
17,GGGATAGA,-0.134
18,GATGTGCC,-0.0597
19,GACCTGGC,-0.37

# Source: the supplement of paper PMC3334620
